Variants at the background level are over-represented here.
B1: TPR 5TU (parent)
chain: GGAUCUUCUCGAUCUAACAAAAAAGACAAAUCUGCCACAAAGCUUGAGAGCAUCUUCGGAUGCAGAGGCGGCAGCCUUCGGUGGCGCGAUAGCGCCAACGUUCUCAACUAUGACACGCAAAACGCGUGCUCCGUUGAAUGGAGUUUAUCAUG

Variants of: B1
Assay: polymerase ribozyme fitness, log enrichment relative to wild type (log ratio); higher = more active; in vitro selection for triplet polymerase activity
Procedure, shortened: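 Each subunit of a heterodimeric triplet polymerase ribozyme was represented by a PCR-built, transcribed mutant library that underwent triplicate single-round in vitro selection with frozen incubation at −7 °C. Extended constructs were recovered by gel excision, streptavidin-bead capture and RT-PCR, and Illumina sequencing of input and output libraries kept genotypes with ≥10 input reads and ≥1 read per output. Fitness is the logarithm of genotype enrichment relative to wild-type enrichment, from inverse-variance-weighted replicate averages, with a logarithm base of 2.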

| Variant | polymerase ribozyme fitness (log ratio) |
| --- | --- |
| A24C G88U C95G C96U | ≤ -4.2 |
| A23U G62U A121U | ≤ -4.2 |
| G25A C85U C93U C116A C125G U151G | ≤ -4.2 |
| A24G A39C C96G C99U A138G U139C U148A | ≤ -4.2 |
| G25U C35U C85A U130G | ≤ -4.2 |
| A24C A26U G70C G140U | ≤ -4.2 |
| A24C A30C C35U G68A C87U C125A G136A | ≤ -4.2 |
| A24U A60U A64C C79A A119U | ≤ -4.2 |
| A24U G42A C87U A107C | ≤ -4.2 |
| G25C A52C G88C A113U | ≤ -4.2 |
| G25C A52G G83C | -3.42 |
| A24G G50A A73G G86A C87G A89U C93G | ≤ -4.2 |
| A24C C93U C114U A119G | ≤ -4.2 |
| A23U A66C G80U G133C G140A | ≤ -4.2 |
| A24C G42U U44G U61A G80C A110U | ≤ -4.2 |
| A24U U31C G59C A66G A91U C114U | ≤ -4.2 |
| A24G G50A U55A G58C C96U A120U | ≤ -4.2 |
| A24G G34A G58C C87A C99U | ≤ -4.2 |
| A23U G25C C35A C43U G80A C95U U104G G128A U144G | ≤ -4.2 |
| G25U C43G U78C G100A C108U A110G G141A | ≤ -4.2 |
| A23U U55A G128U | ≤ -4.2 |
| A24G A49C U56A G67U C85U G94C A119U | ≤ -4.2 |
| A24G A28U G48A U56A G62A G81A U102G U144C | ≤ -4.2 |
| A24U A47C G86A G94C C118U A137G | ≤ -4.2 |

| Variant | polymerase ribozyme fitness (log ratio) |
| --- | --- |
| A23U A41C U55G C79U G84C G143A | ≤ -4.2 |
| A24U C35G C51G A60C G65A A91U C131G U134C U148C G152A | ≤ -4.2 |
| A23G C27U C125A G143U | ≤ -4.2 |
| A23G C35U G42A U56A | ≤ -4.2 |
| A24U A26U G65U G88U G94U A98G G124U G143U | ≤ -4.2 |
| A24C C85U A120C U146A | ≤ -4.2 |
| A24G A26C A60G G83A | ≤ -4.2 |
| A23U U56A C57U G83U A89U | ≤ -4.2 |
| A24G U45A A73G C76G U82G G143U | ≤ -4.2 |
| A23U G74U U82G | ≤ -4.2 |
| A24G U45G C87U | ≤ -4.2 |
| A23U C105A A122C G124U | ≤ -4.2 |
| A24U A41G U53G G124C C131U | -1.4 |
| G25C C27A A28G A40U C149A | ≤ -4.2 |
| A23U U82C | ≤ -4.2 |
| A24C C32U A49C C85G G86A A91G C123G C132A | ≤ -4.2 |
| A23U A52C U55A G81U G84A C99A U127C U145G | ≤ -4.2 |
| A24U C51U U53G C87A | ≤ -4.2 |
| G25C G48C G86U | ≤ -4.2 |
| A23G G59C U111G | ≤ -4.2 |
| A23U A28C C87A G152U | ≤ -4.2 |
| A24U G94A A97U U151C | ≤ -4.2 |
| A24G C87U U146A | ≤ -4.2 |
| A24G U56G U61A U78G C85U G92U G140A | ≤ -4.2 |

| Variant | polymerase ribozyme fitness (log ratio) |
| --- | --- |
| G25C A52C G58C G62U U78G U82C C93A C125G | ≤ -4.2 |
| A23G U44A G83C U144C | ≤ -4.2 |
| G25U A29C C35A A40C | ≤ -4.2 |
| G25C G50C U56A U77G G88C C95U | ≤ -4.2 |
| G25C A29G C85G G128C G141C | ≤ -4.2 |
| A23U A39U A52C C99G A122G | ≤ -4.2 |
| G25C A40C G67U C72G C85U A106G G133A A137C | ≤ -4.2 |
| A23G C87U | -3.14 |
| A24U A52G C69G G70C G88A | ≤ -4.2 |
| G25C A150C | -3.47 |
| G25A A89U C95G | -4.2 |
| A23U C43U U53A U55A A106G G124U C129G | ≤ -4.2 |
| A24G U53A U61A G84C C125U | ≤ -4.2 |
| A24C A47U G50A U56A C75U G100C C116A A121U A150G | ≤ -4.2 |
| A24G A60U C72G C87G C125U U130G A142U | ≤ -4.2 |
| A23G C79U C93U A122U | ≤ -4.2 |
| A24C C27G U33G C38U A47U U82A G128U | ≤ -4.2 |
| G25U A91U C95A C96A | ≤ -4.2 |
| A24U A28U | ≤ -4.2 |
| A24U U56A U148A | -3.8 |
| A24G C125G | -3.52 |
| A23U A29C A119U | ≤ -4.2 |
| A24C C43U G50C A91C C105U C123A | ≤ -4.2 |
| A23U C87U A121U C125A G143U | ≤ -4.2 |

| Variant | polymerase ribozyme fitness (log ratio) |
| --- | --- |
| A24U G25C U56C G59A C75G C99A C103G U145G | ≤ -4.2 |
| G25C G42C A60G U61A G88A | ≤ -4.2 |
| A23G G59U C95U | -3.41 |
| G25A G48U U61G C96A A97G C132G | ≤ -4.2 |
| G25A A39G U45A G71A C93U C95G A142C | ≤ -4.2 |
| A24U A37C U44G C76G G92C A113G | ≤ -4.2 |
| A24U G42A G59A C96G | ≤ -4.2 |
| G25U C43U G67U C96G C99U U104G A119C | ≤ -4.2 |
| A23U A150G | ≤ -4.2 |
| A24G G74C U82G G84U C108G C123U | ≤ -4.2 |
| A24C G68U C76A U77C | ≤ -4.2 |
| A24G U31A U82C U101G | ≤ -4.2 |
| A24C U53A U55A A98U G126A C149G | ≤ -4.2 |
| A23G G46U C79G G88A | ≤ -4.2 |
| A24U G59U A91G C96A G117A C118G C132U G136A | ≤ -4.2 |
| A24G U31A C51A C54A C85A C99A C118U A121U A137G | ≤ -4.2 |
| G25A A29C | ≤ -4.2 |
| A24U G34A C93G U102G | ≤ -4.2 |
| A24C C35A A37C U56A G88U | ≤ -4.2 |
| A24C A29U U78A C93G C132U G152U | ≤ -4.2 |
| A24U A41U A91G A137C U139G | ≤ -4.2 |
| A24G A64U U90G G94A | ≤ -4.2 |
| G25C U55A U61G C69U G88A U145A | ≤ -4.2 |
| G25C A52C U56A C85U G124C | ≤ -4.2 |

| Variant | polymerase ribozyme fitness (log ratio) |
| --- | --- |
| A24U A26U C54A G92A G141C | ≤ -4.2 |
| A24C C35U A138U | ≤ -4.2 |
| A23U G42U A66C C72A C99U C123U | ≤ -4.2 |
| A23U U55A U77C C108U | ≤ -4.2 |
| A23U A26U A41U G50A G65C A91C C103G G128U | ≤ -4.2 |
| G25A A39G G74A U82G C87G U101C | ≤ -4.2 |
| G25A A41U C93U C95U A98C | ≤ -4.2 |
| A23U A91G | ≤ -4.2 |
| A23G U56G C93G C103G U135G G143C | ≤ -4.2 |
| A24G G74A C93G G140C U151G | ≤ -4.2 |
| A24U G42A C108U | 1.52 |
| A24G G46C G59C A60G C132G | ≤ -4.2 |
| A23G C57U A91G C103G C108A | ≤ -4.2 |
| A23G G80A G83A C118U | ≤ -4.2 |
| G25A G81A G92U C103G | ≤ -4.2 |
| A24C C27G A30G U31A A73C C85G | ≤ -4.2 |
| A23U A73G C96G U151G | ≤ -4.2 |
| A23U G58C A64C C69G C85U A110U U134G | ≤ -4.2 |
| A23G C93U U101A G140U | -3.86 |
| A24C C85A G143C U146A | ≤ -4.2 |
| A24U A41C C63A A106U | ≤ -4.2 |
| A24C A91U G100U | ≤ -4.2 |
| G25C A28U G42A A60U C96U U145G | ≤ -4.2 |
| A24C G48U C96A U127G A147G | ≤ -4.2 |

| Variant | polymerase ribozyme fitness (log ratio) |
| --- | --- |
| A24G C54G G58U A60G C93G U145G | ≤ -4.2 |
| A24G A37C C54U G59U U134C A142U A150C | ≤ -4.2 |
| G25U A39U U55A U102C U109G C114U A120U A122G U144G | ≤ -4.2 |
| A24G G86U | -3.77 |
| A23G C35A A142G | -3.78 |
| A23U C93U G126U | ≤ -4.2 |
| A24G C36A G94U U144G | ≤ -4.2 |
| G25A G80A G81A C95U C96A | ≤ -4.2 |
| A24C C85A | ≤ -4.2 |
| A23G G62A A73U C76G G88A C105U A106G | ≤ -4.2 |
| A23U G70U C72G G140C | ≤ -4.2 |
| A24G G84U C87G G88U | ≤ -4.2 |
| A23U A40U G42A U77C G83U G140A | ≤ -4.2 |
| G25C A52C G58C G59C A138U | ≤ -4.2 |
| A23U C87G A91U A98U | ≤ -4.2 |
| A24U A29G A66C C95G C103A A142G | ≤ -4.2 |
| A23U G84A | -3.32 |
| A24G C43U C57U G83A | ≤ -4.2 |
| A23U A47C C76U C87A A107C G136A U145G | ≤ -4.2 |
| A24U A52C A64C G70A C85U U111C | ≤ -4.2 |
| A24C G46C A73G C93A A110U A147U | ≤ -4.2 |
| A24U A26G C27U A37G A97C C103A A110G G112C | ≤ -4.2 |
| A24G U31C G42C A52U A115C | ≤ -4.2 |
| G25U A39G A40U G50C A122U A137G G140C | ≤ -4.2 |

| Variant | polymerase ribozyme fitness (log ratio) |
| --- | --- |
| A24U G86A G143C U148G | ≤ -4.2 |
| A24U A37C G67C G70C A138U U146A | ≤ -4.2 |
| A23U C54U A60G C96U G124A C125U G143U | ≤ -4.2 |
| A23G C54U G68U C95U | ≤ -4.2 |
| G25C A52G U56A G58A G68C C96A | ≤ -4.2 |
| A24G C75U G84A U102G | ≤ -4.2 |
| A23U C35A G65A G83C U90A C103U A150C | ≤ -4.2 |
| A23U C38G C75A C79U U82G C93A | ≤ -4.2 |
| A24C A29C U55G G94C | ≤ -4.2 |
| A23U C36A U55A G58C G62C G88A U139G | ≤ -4.2 |
| G25C C32G A37C U56C G68C G74A C87U A142C | ≤ -4.2 |
| A24C G34C G50C U134A | ≤ -4.2 |
| A24U A52G | 0.771 |
| A23U C76U C87A A89C G94A U101A | ≤ -4.2 |
| A24C A29C U44G G80A A89G C118G | ≤ -4.2 |
| A24U G34A G92C A137G | -4.07 |
| A23U U31C C93G C129G U134G U148G | ≤ -4.2 |
| A24C U31A A52G | -3.62 |
| A23U C32U A47U G67C G83U U148C | ≤ -4.2 |
| A24G G58A G62U C69U C93G G128A | ≤ -4.2 |
| A24U A28C G59C G86C A122U G133C | ≤ -4.2 |
| G25A A47U G58C G92A | ≤ -4.2 |
| A24G A28U G34A A49U U101A | ≤ -4.2 |

Source: the RNAGym collection of RNA variant scans (doi:10.1073/pnas.2313332121)
